Reference: publication PMC9204302, “Novel Pharmacology Following Heteromerization of the Angiotensin II Type 2 Receptor and the Bradykinin Type 2 Receptor” (Frontiers in Endocrinology, 2022)
Results are given in words; binding and its absence hold for the method and conditions named. Binding seen in cells or lysates may run through a third protein. Some results given as binding are weak or reduced against the parent protein; the word gives no strength. Tags and fused reporters may be left off the sequences shown. Blank lines part the entries; values can stand above or below the molecule they belong to.

The chains behind the UniProt entries cited, without tags or fusion partners.
UniProt P19086: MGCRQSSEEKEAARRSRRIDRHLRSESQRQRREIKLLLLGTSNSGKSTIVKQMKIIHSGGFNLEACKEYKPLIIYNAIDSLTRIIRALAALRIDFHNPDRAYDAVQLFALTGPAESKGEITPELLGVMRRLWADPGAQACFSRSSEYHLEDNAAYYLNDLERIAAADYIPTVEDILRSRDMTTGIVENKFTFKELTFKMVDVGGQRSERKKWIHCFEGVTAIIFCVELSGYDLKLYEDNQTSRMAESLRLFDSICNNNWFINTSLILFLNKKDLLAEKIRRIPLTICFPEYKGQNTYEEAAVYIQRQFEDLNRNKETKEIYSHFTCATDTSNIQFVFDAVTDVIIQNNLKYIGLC
UniProt P32121: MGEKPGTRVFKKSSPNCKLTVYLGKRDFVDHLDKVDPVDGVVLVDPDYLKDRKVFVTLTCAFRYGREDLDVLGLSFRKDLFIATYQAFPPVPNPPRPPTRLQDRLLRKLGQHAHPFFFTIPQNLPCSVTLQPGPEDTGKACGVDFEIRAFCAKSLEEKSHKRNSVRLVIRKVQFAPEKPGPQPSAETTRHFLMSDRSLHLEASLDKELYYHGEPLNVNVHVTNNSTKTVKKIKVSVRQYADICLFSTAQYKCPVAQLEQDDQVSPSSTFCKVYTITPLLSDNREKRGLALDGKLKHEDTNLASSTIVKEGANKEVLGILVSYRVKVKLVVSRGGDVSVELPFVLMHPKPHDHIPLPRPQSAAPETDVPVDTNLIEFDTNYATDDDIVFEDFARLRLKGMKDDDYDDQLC

Tests used:
[1] = target: T1, Venus-tagged AT2 receptor (AT2-Venus, rat) (rat) (UniProt P35351); experiment: FRET or BRET; BRET1/eBRET in live HEK293FT cells, one BRET-tagged receptor and one BRET-tagged interacting protein coexpressed, no second receptor; ligand-induced BRET after AngII or BK, 37°C
T1 sequence: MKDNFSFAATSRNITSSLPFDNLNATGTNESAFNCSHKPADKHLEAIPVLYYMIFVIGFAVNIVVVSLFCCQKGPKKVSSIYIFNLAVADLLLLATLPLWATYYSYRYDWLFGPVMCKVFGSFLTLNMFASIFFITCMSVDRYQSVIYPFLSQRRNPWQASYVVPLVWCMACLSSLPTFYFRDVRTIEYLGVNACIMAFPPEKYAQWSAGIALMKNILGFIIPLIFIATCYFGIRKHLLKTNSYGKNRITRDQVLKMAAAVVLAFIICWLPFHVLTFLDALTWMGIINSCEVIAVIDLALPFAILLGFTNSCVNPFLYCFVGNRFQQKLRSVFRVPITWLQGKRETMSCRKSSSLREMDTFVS

[2] = target: T1, Venus-tagged AT2 receptor (AT2-Venus, rat) (rat); experiment: FRET or BRET; Receptor-HIT on the BRET platform in live HEK293FT cells: a BRET-tagged receptor, a second receptor without BRET tag and a BRET-tagged interacting protein coexpressed; ligand-induced BRET after BK, AngII or PGE2, 37°C; some panels with pretreatment with PD 123319 or icatibant
[3] = target: T2, B2 receptor tagged with Rluc8 (B2-Rluc8) (human) (UniProt P30411); experiment: FRET or BRET; BRET1/eBRET in live HEK293FT cells, one BRET-tagged receptor and one BRET-tagged interacting protein coexpressed, no second receptor; ligand-induced BRET after AngII or BK, 37°C
T2 sequence: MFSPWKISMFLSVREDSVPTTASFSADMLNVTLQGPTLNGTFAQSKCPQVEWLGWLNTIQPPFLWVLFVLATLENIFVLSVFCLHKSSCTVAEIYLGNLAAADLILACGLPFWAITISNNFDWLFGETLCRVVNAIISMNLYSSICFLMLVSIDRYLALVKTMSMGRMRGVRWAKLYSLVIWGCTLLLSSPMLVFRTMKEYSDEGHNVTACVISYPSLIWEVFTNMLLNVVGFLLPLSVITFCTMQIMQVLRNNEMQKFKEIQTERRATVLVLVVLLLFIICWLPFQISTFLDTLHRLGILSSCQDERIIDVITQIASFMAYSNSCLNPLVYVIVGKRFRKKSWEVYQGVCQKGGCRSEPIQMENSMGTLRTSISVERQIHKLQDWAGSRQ

[4] = target: T3, B2 receptor without BRET tag (B2 and HA-B2, both referred to as B2) (human) (UniProt P30411); experiment: FRET or BRET; Receptor-HIT on the BRET platform in live HEK293FT cells: a BRET-tagged receptor, a second receptor without BRET tag and a BRET-tagged interacting protein coexpressed; ligand-induced BRET after BK, AngII or PGE2, 37°C; some panels with pretreatment with PD 123319 or icatibant
T3 sequence: T2 sequence

[5] = target: T2, B2 receptor tagged with Rluc8 (B2-Rluc8) (human); experiment: as above
[6] = target: T4, Rluc8-tagged AT2 receptor (AT2-Rluc8, rat) (rat) (UniProt P35351); experiment: as above
T4 sequence: T1 sequence

[7] = target: T5, Venus-tagged B2 receptor (B2-Venus) (human, UniProt P30411 1-391); experiment: FRET or BRET; BRET1/eBRET in live HEK293FT cells, one BRET-tagged receptor and one BRET-tagged interacting protein coexpressed, no second receptor; ligand-induced BRET after AngII or BK, 37°C
T5 construct: made by replacing the Rluc8 coding region of B2-Rluc8 with Venus cDNA; C-terminal end of the tag follows from the parent B2-Rluc8; source: HEK293FT, transiently transfected, in live cells; not shown: Venus, C-terminal, kept
T5 sequence (looked up): T2 sequence

[8] = target: T5, Venus-tagged B2 receptor (B2-Venus); experiment: FRET or BRET; Receptor-HIT on the BRET platform in live HEK293FT cells: a BRET-tagged receptor, a second receptor without BRET tag and a BRET-tagged interacting protein coexpressed; ligand-induced BRET after BK, AngII or PGE2, 37°C; some panels with pretreatment with PD 123319 or icatibant

binding [1]: no binding
binding [2]: no binding
Molecule: Gαz tagged with Rluc8 (Gαz-Rluc8) (from UniProt P19086 1-355)

binding [3]: binds
binding [4]: binds
binding [5]: binds
Molecule: β-arrestin2 tagged with Venus (β-arrestin2-Venus) (from UniProt P32121 1-409)

binding [6]: no binding
B1: prostaglandin E receptor 3 (EP3 receptor) (receptor, UniProt P43115 1-390)
chain: MKETRGYGGDAPFCTRLNHSYTGMWAPERSAEARGNLTRPPGSGEDCGSVSVAFPITMLLTGFVGNALAMLLVSRSYRRRESKRKKSFLLCIGWLALTDLVGQLLTTPVVIVVYLSKQRWEHIDPSGRLCTFFGLTMTVFGLSSLFIASAMAVERALAIRAPHWYASHMKTRATRAVLLGVWLAVLAFALLPVLGVGQYTVQWPGTWCFISTGRGGNGTSSSHNWGNLFFASAFAFLGLLALTVTFSCNLATIKALVSRCRAKATASQSSAQWGRITTETAIQLMGIMCVLSVCWSPLLIMMLKMIFNQTSVEHCKTHTEKQKECNFFLIAVRLASLNQILDPWVYLLLRKILLRKFCQIRYHTNNYASSSTSLPCQCSSTLMWSDHLER

binding [7]: binds
binding [8]: binds
B2: Rluc8-tagged GRK2 (GRK2-Rluc8) (enzyme, UniProt P25098 1-689, looked up)
chain: MADLEAVLADVSYLMAMEKSKATPAARASKKILLPEPSIRSVMQKYLEDRGEVTFEKIFSQKLGYLLFRDFCLNHLEEARPLVEFYEEIKKYEKLETEEERVARSREIFDSYIMKELLACSHPFSKSATEHVQGHLGKKQVPPDLFQPYIEEICQNLRGDVFQKFIESDKFTRFCQWKNVELNIHLTMNDFSVHRIIGRGGFGEVYGCRKADTGKMYAMKCLDKKRIKMKQGETLALNERIMLSLVSTGDCPFIVCMSYAFHTPDKLSFILDLMNGGDLHYHLSQHGVFSEADMRFYAAEIILGLEHMHNRFVVYRDLKPANILLDEHGHVRISDLGLACDFSKKKPHASVGTHGYMAPEVLQKGVAYDSSADWFSLGCMLFKLLRGHSPFRQHKTKDKHEIDRMTLTMAVELPDSFSPELRSLLEGLLQRDVNRRLGCLGRGAQEVKESPFFRSLDWQMVFLQKYPPPLIPPRGEVNAADAFDIGSFDEEDTKGIKLLDSDQELYRNFPLTISERWQQEVAETVFDTINAETDRLEARKKAKNKQLGHEEDYALGKDCIMHGYMSKMGNPFLTQWQRRYFYLFPNRLEWRGEGEAPQSLLTMEEIQSVEETQIKERKCLLLKIRGGKQFILQCDSDPELVQWKKELRDAYREAQQLVQRVPKMKNKPRSPVVELSKVPLVQRGSANGL
notes: GPCR kinase 2 (GRK2); construct synthesized by GeneArt; also called GPCR kinase 2; source: HEK293FT, transiently transfected, in live cells
